Measured values reported in article PMC3110179.
Results are given in words; binding and its absence hold for the method and conditions named. For part of these data: In cells and extracts the contact can be indirect. Some binding calls cover weakened binding; strength is not graded here.

T1: C-terminus of phot1 including its Ser/Thr kinase domain (amino acids 612-996), two-hybrid bait (Arabidopsis thaliana) (UniProt O48963)
T1 sequence: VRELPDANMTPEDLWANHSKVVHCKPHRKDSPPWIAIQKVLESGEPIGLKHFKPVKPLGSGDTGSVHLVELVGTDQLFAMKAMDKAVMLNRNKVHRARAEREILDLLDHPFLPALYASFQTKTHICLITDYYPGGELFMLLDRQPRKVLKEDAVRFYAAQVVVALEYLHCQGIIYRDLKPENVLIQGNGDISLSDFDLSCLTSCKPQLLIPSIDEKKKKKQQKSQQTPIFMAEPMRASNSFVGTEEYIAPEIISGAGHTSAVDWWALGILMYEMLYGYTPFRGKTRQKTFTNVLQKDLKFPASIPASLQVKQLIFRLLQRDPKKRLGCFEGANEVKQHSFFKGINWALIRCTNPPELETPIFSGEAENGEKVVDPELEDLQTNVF

B1: internal NBD of B19 (B19I, amino acids 480-660), two-hybrid prey (domain or fragment, UniProt Q9LJX0 480-660)
chain: ANAHSFITLLPKGYDTQVGERGVQLSGGQKQRIAIARAMLKDPKILLLDEATSALDASSESIVQEALDRVMVGRTTVVVAHRLCTIRNVDSIAVIQQGQVVETGTHEELIAKSGAYASLIRFQEMVGTRDFSNPSTRRTRSTRLSHSLSTKSLSLRSGSLRNLSYSYSTGADGRIEMISNA
B2: FKBP42/TWISTED DWARF 1 (TWD1) (protein, UniProt Q9LDC0 1-365)
chain: MDESLEHQTQTHDQESEIVTEGSAVVHSEPSQEGNVPPKVDSEAEVLDEKVSKQIIKEGHGSKPSKYSTCFLHYRAWTKNSQHKFEDTWHEQQPIELVLGKEKKELAGLAIGVASMKSGERALVHVGWELAYGKEGNFSFPNVPPMADLLYEVEVIGFDETKEGKARSDMTVEERIGAADRRKMDGNSLFKEEKLEEAMQQYEMAIAYMGDDFMFQLYGKYQDMALAVKNPCHLNIAACLIKLKRYDEAIGHCNIVLTEEEKNPKALFRRGKAKAELGQMDSARDDFRKAQKYAPDDKAIRRELRALAEQEKALYQKQKEMYKGIFKGKDEGGAKSKSLFWLIVLWQWFVSLFSRIFRRHRVKAD
B3: C-terminus of B1 (B1C, amino acids 1049-1286), two-hybrid prey (domain or fragment, UniProt Q9ZR72 1049-1286)
chain: ARAGKTLALVGPSGCGKSSVISLIQRFYEPSSGRVMIDGKDIRKYNLKAIRKHIAIVPQEPCLFGTTIYENIAYGHECATEAEIIQAATLASAHKFISALPEGYKTYVGERGVQLSGGQKQRIAIARALVRKAEIMLLDEATSALDAESERSVQEALDQACSGRTSIVVAHRLSTIRNAHVIAVIDDGKVAEQGSHSHLLKNHPDGIYARMIQLQRFTHTQVIGMTSGSSSRVKEDDA

Legend:
[1] = biological target: T1, C-terminus of phot1 including its Ser/Thr kinase domain (amino acids 612-996), two-hybrid bait (Arabidopsis thaliana); test: two-hybrid; yeast; regions of B19 (and B1) in pGADT7 prey, regions of PHOT1 in pGBKT7 bait; growth on full selection medium
[2] = biological target: B19-hemagglutinin (B19:B19-HA) (Arabidopsis thaliana) (UniProt Q9LJX0); test: co-IP; B19-HA immunoprecipitated with anti-HA from Arabidopsis seedlings overexpressing TWD1 and B19-HA; dark-acclimated or 3-d-old dark-grown seedlings, with or without directional blue light (2 µmol m^-2 s^-1, 2 h; interaction attenuated, not in phot1-5); immunoblot with anti-B19 and anti-TWD1

Binder | binding [1] | binding [2]
B1 | binds | –
B2 | – | binds
B3 | no binding | –
